Consider 67 sequences from the supplement of paper PMC10126150.

The series concerns ATP. The series is described as follows: switch fluorescence ratio, 500 uM ATP over buffer (Cy3 cluster intensity, sum of 5 cycles each) (fold (ratio)); higher = stronger signal-on switching upon ATP binding; sequences stand for … in TCGTCGGCAGCGTCAGATGTGTATAAGAGACAGTTTTTTTTTTTTTTTTTTTTTTTTT…TC. The following applies: aptamer strand: ATP DNA aptamer (quencher-CACCTGGGGGAGTATTGCGGAGGAAGG + anchor), 100 nM annealed; ATP concentration: 500 uM; one replicate. Put shortly: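 After annealing to 100 nM quencher-labelled ATP aptamer, Cy3-labelled switching-strand clusters on a modified Illumina MiSeq flow-cell were imaged in selection buffer. A second image followed after 15 min with 500 uM ATP at 22 °C, and five such buffer/ATP cycles were done, each separated by NaOH stripping and re-annealing. The fluorescence ratio, averaged per switch-domain sequence, is summed target-cycle over summed buffer-cycle Cy3 intensity per cluster, with clusters outside 100-1000 RFU excluded.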

Sequences with one replicate were seen in a single cluster, so their values are uncertain.
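Also: ATP exposure 15 min at 22 °C before imaging.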

Take TGAGAGATAC: the switch fluorescence ratio amounted to 1.06.

With AGGTAGTTCT, the switch fluorescence ratio was 1.04.

Consider TCGCAAATCG, for which the switch fluorescence ratio is 1.81.

In the case of CACAAGCGC, the switch fluorescence ratio was 1.03.

Turning to GGAAATGCAT, the switch fluorescence ratio was 1.

As for CAGTCAGGTG, the switch fluorescence ratio was found to be 4.28.

TTCTCGCTGT: the switch fluorescence ratio amounted to 1.08.

On to GGCGTGGGAG, for which the switch fluorescence ratio came out at 0.982.

Regarding CCATCCGATG, the switch fluorescence ratio is 1.57.

With ACATAATTAC, the switch fluorescence ratio came to 1.12.

For the sequence GAGGAAGGA, the switch fluorescence ratio amounted to 1.02.

Turning to TTAGGATAAC, the switch fluorescence ratio was determined as 1.01.

In the case of TCCAGAGTCC, the switch fluorescence ratio turned out to be 1.07.

Regarding TTACGGTCG, the switch fluorescence ratio amounted to 1.01.

As to AATTGACATT, the switch fluorescence ratio is 0.981.

For the sequence TGACGCGGTA, the switch fluorescence ratio was determined as 1.14.

As for CGGCCGCCTT, the switch fluorescence ratio is 1.01.

Take ATAGGTTCAG: the switch fluorescence ratio turned out to be 0.968.

GGTTCGTAAC: the switch fluorescence ratio amounted to 1.01.

In the case of GTTGGTTCTA, the switch fluorescence ratio is 1.

Take TGGTTTGTTC: the switch fluorescence ratio was 1.01.

In the case of GGTCAATGCA, the switch fluorescence ratio was found to be 0.997.

For the sequence TAGCACTAAT, the switch fluorescence ratio was 1.03.

As for TGACGTTTGT, the switch fluorescence ratio was 0.997.

Take TTCACCGGGG: the switch fluorescence ratio stood at 1.

As to CAAATCACAA, the switch fluorescence ratio worked out at 0.973.

Regarding GCGCGGGCCT, the switch fluorescence ratio is 0.972.

For TCACTAAGTT, the switch fluorescence ratio came to 1.05.

Take CAGTTCCGCT: the switch fluorescence ratio was found to be 1.11.

Consider AAGTAGGATA, for which the switch fluorescence ratio turned out to be 1.01.

Regarding AATGGCTCGG, the switch fluorescence ratio was 1.04.

In the case of AAAGATAAAA, the switch fluorescence ratio worked out at 0.974.

For ATGCGGGTC, the switch fluorescence ratio came to 0.864.

For CTATGTAGCC, the switch fluorescence ratio was 0.966.

In the case of AGTAAAGCAT, the switch fluorescence ratio was determined as 1.03.

Consider CGCCTGCTGC, for which the switch fluorescence ratio was 1.16.

With TATCTGTGCG, the switch fluorescence ratio amounted to 1.01.

Consider AGTAGGCGTG, for which the switch fluorescence ratio stood at 0.982.

Turning to GGCGCGGACG, the switch fluorescence ratio was 1.01.

For the sequence AAAACTGGAG, the switch fluorescence ratio was 1.03.

In the case of TTTACCCAGC, the switch fluorescence ratio amounted to 1.09.

In the case of GTTAGCACGG, the switch fluorescence ratio stood at 1.

For the sequence GCAAGTTTCC, the switch fluorescence ratio is 1.35.

On to AGTGGTCGAG, for which the switch fluorescence ratio worked out at 0.993.

For the sequence TGGGCCAAAT, the switch fluorescence ratio was 1.07.

On to GCACGATAAA, for which the switch fluorescence ratio was 1.15.

With TCGGTACGTG, the switch fluorescence ratio came to 0.985.

As for AGATTTAAAC, the switch fluorescence ratio is 0.993.

Regarding CTAGAGAGTC, the switch fluorescence ratio was found to be 1.07.

For TGTGAATACG, the switch fluorescence ratio worked out at 1.02.

Take CGTCCAGAAC: the switch fluorescence ratio is 1.09.

On to TTCGGGCCTC, for which the switch fluorescence ratio is 1.08.

Regarding ACGTTACAAT, the switch fluorescence ratio came out at 1.33.

Regarding CCCGTACACC, the switch fluorescence ratio was determined as 1.22.

Regarding GATTGGTTTA, the switch fluorescence ratio came out at 0.972.

As to TAGAAGTCTT, the switch fluorescence ratio came to 1.01.

With GGTGACTACT, the switch fluorescence ratio was determined as 1.03.

Regarding CATAGGCGTT, the switch fluorescence ratio was determined as 0.94.

For the sequence AGAGTGAAGG, the switch fluorescence ratio was determined as 0.987.

In the case of TGCATAAGTT, the switch fluorescence ratio was determined as 1.01.

As for GGTGGGAAAC, the switch fluorescence ratio came out at 1.05.

On to GGCCCAGTAA, for which the switch fluorescence ratio is 0.999.

Turning to GCGACTCACT, the switch fluorescence ratio turned out to be 1.22.

In the case of GCAGGGAAGT, the switch fluorescence ratio is 0.98.

Consider ATTGGCTCGA, for which the switch fluorescence ratio stood at 0.988.

Regarding ATTTATTCGG, the switch fluorescence ratio is 0.99.

In the case of GCCAGGGAAT, the switch fluorescence ratio was 0.978.
